Not every entry of the source has a single result; some have several. This list holds those alone. There may be further records. For some of these results: The values listed for one entry seem to repeat one measurement (runs, samples, wells or individuals). For some of these results: Values given together read as repeated measurements on other runs, samples or individuals; a mean can stand among them. Some values that stand alone complete this part of the results. One block for each binder: values may come before it. Where no end group is shown, it is not given here.
Tests used:
[1] = target: X-box binding protein 1 (human) (UniProt P17861); assay: FRET or BRET; direct-binding FRET in 384-well plates; rhodamine-labelled design (acceptor) titrated 0 to 1 uM into 10 nM fluorescein-labelled bZIP (donor); 150 mM KCl, 50 mM potassium phosphate pH 7.4, 0.1% Tween-20, 0.1% BSA; 37 °C
[2] = target: X-box binding protein 1 (human) (UniProt P17861); assay: FRET or BRET; direct-binding FRET in 384-well plates; rhodamine-labelled design (acceptor) titrated 0 to 1 uM into 10 nM fluorescein-labelled bZIP (donor); 150 mM KCl, 50 mM potassium phosphate pH 7.4, 0.1% Tween-20, 0.1% BSA; 4 °C
ATF4 (human) [3] = target: ATF4 (human) (UniProt P18848); assay: FRET or BRET; direct-binding FRET in 384-well plates; rhodamine-labelled design (acceptor) titrated 0 to 1 uM into 10 nM fluorescein-labelled bZIP (donor); 150 mM KCl, 50 mM potassium phosphate pH 7.4, 0.1% Tween-20, 0.1% BSA; 23 °C
ATF2 (human) [4] = target: ATF2 (human) (UniProt P15336); assay: as above
ATF2 (human) [5] = target: ATF2 (human) (UniProt P15336); assay: FRET or BRET; direct-binding FRET in 384-well plates; rhodamine-labelled design (acceptor) titrated 0 to 1 uM into 10 nM fluorescein-labelled bZIP (donor); 150 mM KCl, 50 mM potassium phosphate pH 7.4, 0.1% Tween-20, 0.1% BSA; 37 °C
ATF4 (human) [6] = target: ATF4 (human) (UniProt P18848); assay: FRET or BRET; direct-binding FRET in 384-well plates; rhodamine-labelled design (acceptor) titrated 0 to 1 uM into 10 nM fluorescein-labelled bZIP (donor); 150 mM KCl, 50 mM potassium phosphate pH 7.4, 0.1% Tween-20, 0.1% BSA; 4 °C
ATF2 (human) [7] = target: ATF2 (human) (UniProt P15336); assay: as above
ATF4 (human) [8] = target: ATF4 (human) (UniProt P18848); assay: FRET or BRET; direct-binding FRET in 384-well plates; rhodamine-labelled design (acceptor) titrated 0 to 1 uM into 10 nM fluorescein-labelled bZIP (donor); 150 mM KCl, 50 mM potassium phosphate pH 7.4, 0.1% Tween-20, 0.1% BSA; 37 °C
ATF5 (human) [9] = target: ATF5 (human) (UniProt Q9Y2D1); assay: FRET or BRET; direct-binding FRET in 384-well plates; rhodamine-labelled design (acceptor) titrated 0 to 1 uM into 10 nM fluorescein-labelled bZIP (donor); 150 mM KCl, 50 mM potassium phosphate pH 7.4, 0.1% Tween-20, 0.1% BSA; 23 °C
ATF5 (human) [10] = target: ATF5 (human) (UniProt Q9Y2D1); assay: FRET or BRET; direct-binding FRET in 384-well plates; rhodamine-labelled design (acceptor) titrated 0 to 1 uM into 10 nM fluorescein-labelled bZIP (donor); 150 mM KCl, 50 mM potassium phosphate pH 7.4, 0.1% Tween-20, 0.1% BSA; 37 °C
ATF6B = ATF6B (Homo sapiens, UniProt Q99941); assay: FRET or BRET; direct-binding FRET in 384-well plates; rhodamine-labelled design (acceptor) titrated 0 to 1 uM into 10 nM fluorescein-labelled bZIP (donor); 150 mM KCl, 50 mM potassium phosphate pH 7.4, 0.1% Tween-20, 0.1% BSA; 4 °C
JUN [11] = target: T1, JUN (Homo sapiens, UniProt P05412); assay: FRET or BRET; direct-binding FRET in 384-well plates; rhodamine-labelled design (acceptor) titrated 0 to 1 uM into 10 nM fluorescein-labelled bZIP (donor); 150 mM KCl, 50 mM potassium phosphate pH 7.4, 0.1% Tween-20, 0.1% BSA; 23 °C
JUN [12] = target: T1, JUN; assay: FRET or BRET; direct-binding FRET in 384-well plates; rhodamine-labelled design (acceptor) titrated 0 to 1 uM into 10 nM fluorescein-labelled bZIP (donor); 150 mM KCl, 50 mM potassium phosphate pH 7.4, 0.1% Tween-20, 0.1% BSA; 37 °C
JUN [13] = target: T1, JUN; assay: FRET or BRET; direct-binding FRET in 384-well plates; rhodamine-labelled design (acceptor) titrated 0 to 1 uM into 10 nM fluorescein-labelled bZIP (donor); 150 mM KCl, 50 mM potassium phosphate pH 7.4, 0.1% Tween-20, 0.1% BSA; 4 °C
[14] = mean of four replicate measurements

Chain of UniProt P17861 (P17861 whole entry): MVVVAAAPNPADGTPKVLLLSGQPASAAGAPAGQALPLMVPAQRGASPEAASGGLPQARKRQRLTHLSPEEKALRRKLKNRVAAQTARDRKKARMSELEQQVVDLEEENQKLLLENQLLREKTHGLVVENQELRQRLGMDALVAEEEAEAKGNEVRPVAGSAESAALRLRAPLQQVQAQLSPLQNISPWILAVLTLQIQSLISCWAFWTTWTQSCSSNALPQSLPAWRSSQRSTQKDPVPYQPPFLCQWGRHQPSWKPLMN
Chain of UniProt Q99941 (Q99941 whole entry): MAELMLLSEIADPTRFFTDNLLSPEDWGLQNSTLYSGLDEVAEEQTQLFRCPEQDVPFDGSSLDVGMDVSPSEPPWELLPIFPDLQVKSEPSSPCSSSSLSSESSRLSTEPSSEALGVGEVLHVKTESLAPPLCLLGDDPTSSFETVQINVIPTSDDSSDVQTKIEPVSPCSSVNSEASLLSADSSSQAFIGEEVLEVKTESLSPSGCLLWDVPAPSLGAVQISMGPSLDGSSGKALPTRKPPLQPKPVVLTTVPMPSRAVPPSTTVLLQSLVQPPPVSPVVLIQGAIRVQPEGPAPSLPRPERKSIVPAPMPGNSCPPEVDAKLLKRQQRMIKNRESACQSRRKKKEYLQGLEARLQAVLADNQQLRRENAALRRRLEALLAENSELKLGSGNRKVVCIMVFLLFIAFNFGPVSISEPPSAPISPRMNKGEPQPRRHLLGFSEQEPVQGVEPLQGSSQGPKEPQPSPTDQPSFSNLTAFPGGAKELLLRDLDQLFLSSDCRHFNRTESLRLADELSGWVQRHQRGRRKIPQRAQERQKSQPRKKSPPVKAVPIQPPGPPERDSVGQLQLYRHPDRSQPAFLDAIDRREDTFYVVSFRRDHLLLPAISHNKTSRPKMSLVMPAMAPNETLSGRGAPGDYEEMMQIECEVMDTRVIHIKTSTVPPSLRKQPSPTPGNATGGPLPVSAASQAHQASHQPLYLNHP
T1 sequence (P05412 whole entry): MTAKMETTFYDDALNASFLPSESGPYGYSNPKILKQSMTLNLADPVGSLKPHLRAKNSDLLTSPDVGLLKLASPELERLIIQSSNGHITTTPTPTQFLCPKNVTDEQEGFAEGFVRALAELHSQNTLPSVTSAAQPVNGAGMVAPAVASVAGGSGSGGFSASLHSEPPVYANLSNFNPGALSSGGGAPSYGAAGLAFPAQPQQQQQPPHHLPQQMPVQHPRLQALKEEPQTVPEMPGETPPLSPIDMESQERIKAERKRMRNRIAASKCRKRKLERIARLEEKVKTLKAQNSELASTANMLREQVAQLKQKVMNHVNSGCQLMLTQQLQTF
Chain of UniProt P18848 (P18848 whole entry): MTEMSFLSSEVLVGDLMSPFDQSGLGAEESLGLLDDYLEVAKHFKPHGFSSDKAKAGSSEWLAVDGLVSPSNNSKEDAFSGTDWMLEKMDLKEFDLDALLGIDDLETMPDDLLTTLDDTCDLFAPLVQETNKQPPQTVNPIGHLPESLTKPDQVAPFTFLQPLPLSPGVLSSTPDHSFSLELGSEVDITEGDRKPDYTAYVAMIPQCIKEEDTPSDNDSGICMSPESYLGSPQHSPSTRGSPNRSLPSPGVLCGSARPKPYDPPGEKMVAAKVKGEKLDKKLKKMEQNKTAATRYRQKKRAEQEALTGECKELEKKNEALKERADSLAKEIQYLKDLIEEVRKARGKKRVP
Chain of UniProt P15336 (P15336 whole entry): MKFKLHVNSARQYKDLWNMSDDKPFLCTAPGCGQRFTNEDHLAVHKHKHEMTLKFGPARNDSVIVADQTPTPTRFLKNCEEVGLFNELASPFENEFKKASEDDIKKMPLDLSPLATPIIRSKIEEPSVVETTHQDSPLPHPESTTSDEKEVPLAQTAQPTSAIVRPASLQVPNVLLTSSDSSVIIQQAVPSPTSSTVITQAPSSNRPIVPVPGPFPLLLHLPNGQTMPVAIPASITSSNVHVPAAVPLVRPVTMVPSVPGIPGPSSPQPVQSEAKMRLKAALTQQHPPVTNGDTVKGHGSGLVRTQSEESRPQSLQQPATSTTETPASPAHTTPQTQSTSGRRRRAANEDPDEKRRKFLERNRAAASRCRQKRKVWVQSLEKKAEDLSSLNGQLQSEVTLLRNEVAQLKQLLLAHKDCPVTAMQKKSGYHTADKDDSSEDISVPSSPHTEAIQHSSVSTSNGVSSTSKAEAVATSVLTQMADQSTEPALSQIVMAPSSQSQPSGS
Chain of UniProt Q9Y2D1 (Q9Y2D1 whole entry): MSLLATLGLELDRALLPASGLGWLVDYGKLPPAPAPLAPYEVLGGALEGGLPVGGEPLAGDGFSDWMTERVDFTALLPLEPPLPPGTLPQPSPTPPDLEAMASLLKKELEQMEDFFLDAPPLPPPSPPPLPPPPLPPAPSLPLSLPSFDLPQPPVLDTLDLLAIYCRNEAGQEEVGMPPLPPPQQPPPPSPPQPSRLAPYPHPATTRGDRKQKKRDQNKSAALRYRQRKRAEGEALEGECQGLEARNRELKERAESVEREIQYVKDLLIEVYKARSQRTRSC

Kd [1]: 208, 227, 171, 80.2 nM
Kd ([2]; individual replicate measurement): 2.3, 2, 1.7, 1 nM
Kd ([2]; mean of replicate measurements): 1.8 nM
B1: XBP1-d1 labeled at the C-terminus (designed binder)
chain: GESKEYKKGSGSEREAQLENRVAHLKEKNQELKAQNLHLKEALSEAQNRNQELKNDAGC
modifications: also: Cys59: Rhodamine Red C2-maleimide or fluorescein-5-maleimide, by assay

Kd (ATF4 (human) [3]; individual replicate fit): 52.1 nM, 54.3 nM, 44.3 nM
Kd (ATF4 (human) [3]; mean of replicate fits): 50 nM
Kd (ATF2 (human) [4]; mean of replicates): 108 nM
Kd (ATF2 (human) [4]; single replicate): 110, 104, 107, 112 nM
Kd (ATF2 (human) [5]): 681 nM, 760 nM, 708 nM
Kd (ATF4 (human) [6]; individual measurement, 4 °C): 3.7 nM, 3.3 nM, 3.6 nM
Kd (ATF4 (human) [6]; mean value, 4 °C): 3.5 nM
Kd (ATF2 (human) [7]; individual replicate fit): 12.1 nM, 14 nM, 9.7 nM
Kd (ATF2 (human) [7]; mean of replicate fits): 12 nM
B2: JUN-d1 labeled at the C-terminus (designed binder)
chain: GESKEYKKGSGSSIAATLEKEEANLEKMNKKLAAEIESLLKEKDKLESVLNYHEGC
modifications: also: Cys56: Rhodamine Red C2-maleimide or fluorescein-5-maleimide, by assay

Kd (ATF4 (human) [3]; individual replicate Kd): 490, 112, 103, 22.4 nM
Kd (ATF4 (human) [3]; summary Kd across replicates): 235 nM
Kd (ATF4 (human) [8]; individual replicate): 1 µM, 635 nM, 328 nM
Kd (ATF4 (human) [8]; mean of replicates): 741 nM
Kd (ATF4 (human) [6]): 1 µM and 71.5 nM
B3: ATF4-d1 labeled at the N-terminus (designed binder)
chain: GESKEYKKGSGSC(Rhodamine Red C2‑maleimide)GNQIKTLRTRLSKLRKDNLQLEKDIANLERKAKDLRAEKEQLEYEL

Kd (ATF5 (human) [9]): 51.6, 49.2, 31.6, 9.3 nM
Kd (ATF5 (human) [9]; summary value across replicates): 44.1 nM
Kd (ATF5 (human) [10]): 2.8 µM, 1.51 µM, 729 nM, 129 nM
Kd (ATF6B; mean of replicates): 433 nM
Kd (ATF6B; single replicate): 448 nM, 438 nM, 412 nM
B4: ATF5-d1 labeled at the C-terminus (designed binder)
chain: GESKEYKKGSGSKRIAYLRQRIAELRNENHVLESRIQRMEKEKDALQQDRDHLEYELGC(Rhodamine Red C2‑maleimide)
modifications: not fully specified

Kd (JUN [11]; [14]): 5.2 nM
Kd (JUN [11]; single replicate measurement): 4.7, 7.3, 6, 2.8 nM
Kd (JUN [12]; [14]): 41 nM
Kd (JUN [12]; single replicate measurement): 48.1, 50.6, 35.8, 29.5 nM
Kd (JUN [13]; individual replicate): 1.5, 1.3, 2.3, 1.1 nM
Kd (JUN [13]; mean of replicates): 1.6 nM
B5: JUN-d1 labeled at the N-terminus (designed binder)
chain: GESKEYKKGSGSC(Rhodamine Red C2‑maleimide)GSIAATLEKEEANLEKMNKKLAAEIESLLKEKDKLESVLNYHE

— article PMC4335062, “Data-Driven Prediction and Design of bZIP Coiled-Coil Interactions” (PLoS Computational Biology, 2015)
